± gives the uncertainty stated by the source. The sequences are guide strands of siRNAs; only the seed at positions 2 to 7 varies.
Legend:
3LL = assay: cell viability relative to siNT1 control; higher = less toxic; settings: concentration: 10 nM; 96 h; Mus musculus;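 further: Luminescence-based viability of cells reverse transfected in 384-well plates with lipid-complexed siRNAs built on a non-toxic 19mer backbone whose passenger strand carries 2′-O-methyl groups at positions 1 and 2, triplicates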
Procedure: (§1)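 Arrayed screen of 4096 siRNA duplexes, each carrying one of all possible 6mer seeds at guide-strand positions 2-7 in a fixed neutral 19mer scaffold (constant flanks: U at position 1, then ACAUGUAAACCA, plus a 3' AA overhang). The passenger strand is 2'-O-methylated at positions 1-2 so only the guide strand loads into RISC. Duplexes were reverse-transfected at 10 nM with RNAiMAX in triplicate in 384-well plates; viability was read by CellTiter-Glo ATP content 96 h after transfection. Values are % viability normalised to lipid-only wells (HeyA8, H460, M565) or to siNT1 (3LL).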

H460 = assay: cell viability relative to lipid-only control; HeyA8 human ovarian and H460 human lung cancer; M565 mouse liver and 3LL mouse lung cancer; siNT1 is a non-toxic control siRNA; higher = less toxic; settings: concentration: 10 nM; 96 h; Homo sapiens
Procedure: as §1

HeyA8 = assay: as above; settings: concentration: 10 nM; 96 h; Homo sapiens
Procedure: as §1

M565 = assay: as above; settings: concentration: 10 nM; 96 h; Mus musculus
Procedure: as §1
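Wherever cell viability relative to lipid-only control is given: reverse lipid transfection in 384-well plates, in triplicate, of duplexes on a non-toxic 19mer backbone with passenger strand 2′-O-methylated at positions 1 and 2, luminescence viability read-out.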

| Sequence | cell viability (3LL) [%] | cell viability (H460) [%] | cell viability (HeyA8) [%] | cell viability (M565) [%] |
| --- | --- | --- | --- | --- |
| UAACGUGACAUGUAAACCAAA | 89.9 ± 5.7 | 73.6 ± 19 | 82.5 ± 5.9 | 85.7 ± 21 |
| UAACGUUACAUGUAAACCAAA | 96.8 ± 11 | 62.3 ± 4.8 | 90 ± 3.2 | 115 ± 20 |
| UAACUAAACAUGUAAACCAAA | 88.3 ± 11 | 81.9 ± 14 | 90 ± 13 | 79.8 ± 18 |
| UAACUACACAUGUAAACCAAA | 82 ± 5.9 | 61.51 ± 0.49 | 78.8 ± 19 | 69.4 ± 5 |
| UAACUAGACAUGUAAACCAAA | 90.6 ± 4.8 | 66.3 ± 15 | 81.4 ± 14 | 72.1 ± 4.9 |
| UAACUAUACAUGUAAACCAAA | 93.9 ± 14 | 68 ± 5.3 | 94.4 ± 13 | 78.8 ± 8.2 |
| UAACUCAACAUGUAAACCAAA | 85.3 ± 5.4 | 67.7 ± 22 | 80.8 ± 11 | 63.9 ± 6.6 |
| UAACUCCACAUGUAAACCAAA | 63.4 ± 1.5 | 56.7 ± 6.1 | 32.9 ± 4 | 38.8 ± 8.3 |
| UAACUCGACAUGUAAACCAAA | 90.6 ± 8.3 | 65.9 ± 5 | 94.4 ± 1.9 | 71.1 ± 5.3 |
| UAACUCUACAUGUAAACCAAA | 65 ± 10 | 69.9 ± 14 | 48.7 ± 6.6 | 38.4 ± 1.5 |
| UAACUGAACAUGUAAACCAAA | 85.1 ± 13 | 57.9 ± 5.4 | 79.8 ± 11 | 52.9 ± 11 |
| UAACUGCACAUGUAAACCAAA | 11.3 ± 1.9 | 48.1 ± 8.8 | 11.9 ± 2.1 | 8.56 ± 0.92 |
| UAACUGGACAUGUAAACCAAA | 50.6 ± 15 | 54.2 ± 6.3 | 16.6 ± 3 | 34.6 ± 10 |
| UAACUGUACAUGUAAACCAAA | 34.8 ± 5.7 | 57.9 ± 3.8 | 25.2 ± 2.9 | 16.5 ± 3.1 |
| UAACUUAACAUGUAAACCAAA | 94 ± 7 | 59.1 ± 3.6 | 94.4 ± 24 | 88 ± 8.4 |
| UAACUUCACAUGUAAACCAAA | 51.1 ± 7.5 | 54.7 ± 4.2 | 34.4 ± 4.2 | 86.6 ± 8.9 |
| UAACUUGACAUGUAAACCAAA | 81.9 ± 7 | 62.2 ± 3.8 | 90.1 ± 17 | 80.8 ± 5.5 |
| UAACUUUACAUGUAAACCAAA | 81.7 ± 4.5 | 61.7 ± 4.6 | 69.7 ± 15 | 92.3 ± 20 |
| UAAGAAAACAUGUAAACCAAA | 79.3 ± 5 | 82.3 ± 20 | 87.7 ± 11 | 79.3 ± 4.2 |

| Sequence | cell viability (3LL) [%] | cell viability (H460) [%] | cell viability (HeyA8) [%] | cell viability (M565) [%] |
| --- | --- | --- | --- | --- |
| UAAGAACACAUGUAAACCAAA | 82.2 ± 11 | 63.8 ± 4.6 | 75 ± 5.5 | 70.7 ± 3.7 |
| UAAGAAGACAUGUAAACCAAA | 86.1 ± 12 | 61.7 ± 4.2 | 94 ± 6.6 | 76.1 ± 2.7 |
| UAAGAAUACAUGUAAACCAAA | 84.7 ± 8.2 | 102 ± 5.8 | 88.8 ± 5.5 | 65 ± 4.8 |
| UAAGACAACAUGUAAACCAAA | 90.5 ± 6.8 | 69.5 ± 5.8 | 92 ± 9.4 | 71.4 ± 1.5 |
| UAAGACCACAUGUAAACCAAA | 48.5 ± 6.2 | 59.9 ± 3.9 | 56.7 ± 8.7 | 32.4 ± 3 |
| UAAGACGACAUGUAAACCAAA | 89.8 ± 6.8 | 65.3 ± 7.8 | 94.3 ± 5.4 | 73.7 ± 5.2 |
| UAAGACUACAUGUAAACCAAA | 74.4 ± 7.4 | 78.8 ± 13 | 67 ± 4.2 | 43.1 ± 6.2 |
| UAAGAGAACAUGUAAACCAAA | 83.1 ± 3.9 | 64.2 ± 4.6 | 89.8 ± 5.1 | 66.5 ± 7.3 |
| UAAGAGCACAUGUAAACCAAA | 18.6 ± 2.6 | 86.7 ± 5.6 | 73.4 ± 7.8 | 65.4 ± 4.3 |
| UAAGAGGACAUGUAAACCAAA | 81.1 ± 6.5 | 71.9 ± 7.7 | 72.8 ± 1.8 | 46.9 ± 8.5 |
| UAAGAGUACAUGUAAACCAAA | 70.3 ± 1.1 | 68.7 ± 2.9 | 67.3 ± 9.4 | 61 ± 2.7 |
| UAAGAUAACAUGUAAACCAAA | 88.5 ± 5.3 | 64.9 ± 5.8 | 84.2 ± 14 | 79.1 ± 8.1 |
| UAAGAUCACAUGUAAACCAAA | 77.3 ± 6.9 | 63.6 ± 7 | 54.2 ± 20 | 58.4 ± 11 |
| UAAGAUGACAUGUAAACCAAA | 80.7 ± 2.2 | 71.9 ± 15 | 85.9 ± 17 | 84 ± 8.1 |
| UAAGAUUACAUGUAAACCAAA | 91.6 ± 15 | 71.8 ± 8.4 | 78.2 ± 19 | 63.5 ± 6.5 |
| UAAGCAAACAUGUAAACCAAA | 83.9 ± 2.6 | 105 ± 15 | 84.1 ± 6.8 | 66.8 ± 3.8 |
| UAAGCACACAUGUAAACCAAA | 75 ± 6.5 | 86.2 ± 19 | 70 ± 12 | 43.6 ± 5.4 |
| UAAGCAGACAUGUAAACCAAA | 74.4 ± 7.5 | 75.4 ± 14 | 98.3 ± 10 | 68 ± 7.5 |
| UAAGCAUACAUGUAAACCAAA | 79.2 ± 7 | 61.6 ± 6.8 | 79.1 ± 6.9 | 43 ± 3.1 |

| Sequence | cell viability (3LL) [%] | cell viability (H460) [%] | cell viability (HeyA8) [%] | cell viability (M565) [%] |
| --- | --- | --- | --- | --- |
| UAAGCCAACAUGUAAACCAAA | 95.1 ± 2.7 | 85.2 ± 22 | 85 ± 15 | 62.2 ± 5.8 |
| UAAGCCCACAUGUAAACCAAA | 15.3 ± 5.4 | 58.1 ± 10 | 52.3 ± 11 | 24.2 ± 3.5 |
| UAAGCCGACAUGUAAACCAAA | 78.1 ± 7.8 | 101 ± 11 | 81.1 ± 10 | 49.8 ± 7.8 |
| UAAGCCUACAUGUAAACCAAA | 77.9 ± 8.3 | 90 ± 26 | 68.5 ± 8.2 | 41.2 ± 6.2 |
| UAAGCGAACAUGUAAACCAAA | 85.8 ± 8.3 | 83.1 ± 24 | 93.2 ± 9.9 | 62.9 ± 4.7 |
| UAAGCGCACAUGUAAACCAAA | 59.7 ± 6.3 | 93.9 ± 16 | 89 ± 18 | 34.9 ± 3.5 |
| UAAGCGGACAUGUAAACCAAA | 81.9 ± 8 | 79.7 ± 18 | 91.1 ± 6 | 47 ± 7.1 |
| UAAGCGUACAUGUAAACCAAA | 74.8 ± 3.2 | 91.1 ± 23 | 84.2 ± 9.3 | 74.1 ± 11 |
| UAAGCUAACAUGUAAACCAAA | 82.3 ± 7.8 | 93.3 ± 28 | 88.2 ± 4 | 67.3 ± 6.9 |
| UAAGCUCACAUGUAAACCAAA | 43.7 ± 6.9 | 68.2 ± 7.7 | 76.8 ± 7.5 | 60.1 ± 3.3 |
| UAAGCUGACAUGUAAACCAAA | 84.1 ± 1.9 | 68.6 ± 8.3 | 94.9 ± 14 | 56.3 ± 6.7 |
| UAAGCUUACAUGUAAACCAAA | 80 ± 10 | 100 ± 26 | 81 ± 12 | 62.6 ± 10 |
| UAAGGAAACAUGUAAACCAAA | 83.3 ± 4.6 | 66.6 ± 8.7 | 93.2 ± 8.3 | 69.4 ± 3.2 |
| UAAGGACACAUGUAAACCAAA | 32.5 ± 2.6 | 46.6 ± 11 | 35.8 ± 0.58 | 48.1 ± 2.9 |
| UAAGGAGACAUGUAAACCAAA | 84.2 ± 6.8 | 64.5 ± 4.3 | 89.8 ± 4.3 | 58.3 ± 1.5 |
| UAAGGAUACAUGUAAACCAAA | 80 ± 6.2 | 73.6 ± 14 | 77.6 ± 2.3 | 33.2 ± 4.7 |
| UAAGGCAACAUGUAAACCAAA | 71.4 ± 4.6 | 60 ± 5.3 | 71.1 ± 7.9 | 26.2 ± 6.3 |
| UAAGGCCACAUGUAAACCAAA | 4.18 ± 1.2 | 53.6 ± 5.5 | 24.3 ± 0.66 | 5.36 ± 1.4 |
| UAAGGCGACAUGUAAACCAAA | 75.7 ± 8.9 | 65.1 ± 6.3 | 70.6 ± 1.5 | 44.1 ± 11 |

Reference: the supplement of paper PMC6206098
